The list shows a part of the results. At the low end of the ranking, values are background and their order means little. The protein was read in a cell extract, so binding may be indirect.
Each sequence was assayed against T1, HNF4alpha8 (COS-7 nuclear extract) (UniProt P41235-5) (assay: protein-binding microarray). Conditions: COS-7 nuclear extract on double-stranded Agilent 4x180k PBM; binding buffer, salt, pH and temperature not given; high values mean tight binding; double strand, one strand shown; sequences stand for … in …GCCTAGGGAGATTAGAGTATCGGTCGA.
T1 sequence: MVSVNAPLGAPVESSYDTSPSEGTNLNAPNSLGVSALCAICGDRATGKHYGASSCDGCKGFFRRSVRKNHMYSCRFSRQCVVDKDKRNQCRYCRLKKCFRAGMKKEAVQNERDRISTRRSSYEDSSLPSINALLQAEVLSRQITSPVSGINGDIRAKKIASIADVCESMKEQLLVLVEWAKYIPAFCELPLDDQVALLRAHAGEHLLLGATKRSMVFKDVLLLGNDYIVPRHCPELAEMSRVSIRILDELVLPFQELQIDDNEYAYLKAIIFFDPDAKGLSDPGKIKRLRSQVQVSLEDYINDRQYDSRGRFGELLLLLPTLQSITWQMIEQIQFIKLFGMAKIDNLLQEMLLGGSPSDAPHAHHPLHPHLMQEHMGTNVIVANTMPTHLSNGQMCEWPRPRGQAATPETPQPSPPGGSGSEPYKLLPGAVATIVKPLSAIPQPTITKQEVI

Sequence	binding signal (log2 normalized intensity)
GATTCCACACTGGCTAGATAAGGCTGAAAC	-1.25
TTGCCAAGTCCTTCCCAAACTATAGATTTG	-1.29
AGGGCCCGCTGATCCCGGGAGGGAGAGAAG	-1.38
CTGGCCAGAAGGTCAGAGATCAGGTCTCTT	2.03
CTTGGGTGTATGGGTATAGGCGCGCGTGTG	1.37
AGAAACAGCTGGATTGTTACATCATAGTGT	1.01
ATCAGCTTATCTCAAGAATTGTCTAACCGC	-1.27
TTTTTTTTCTTTCTTTTCCCAAACCACGTT	1.23
TTTTGTATGCATAAGGCCTTGGACCTTCTG	3.19
TTCCCTTTGTATGGCAGGGGTTAACCTCTA	3.4
GAGCAGGCCTGGGCTTGCAAAGGTCAGGTT	3.71
GTGTCAATTCTCATTCATCCAAGGACTTTG	2.49
TAGGTTAGATAGGAATCTGGATGGCTGAGC	-1.27
CACACACACACACACACCCCACACACCAAA	2.82
GCACATTCCTTTCCCTTTATTTAGCCTCAC	0.788
CGTTAGGCTACAGTGGTAACCACAGTACTG	-1.34
GAAAACCTTAGGCGAATGTCAAAGGTCTTT	3.64
CGCTCTGAGTGACCTTTCACCCGCGCCCAG	6.45
GTCAGCCACCCCTCCTCCTGGGGGCTTTTG	1.91
CATCAATTTAGACCGTGTGGAAACCTAACT	-1.14

Sequence	binding signal (log2 normalized intensity)
TATGAGGCTTCCATTCTCAGGCAGATGGGC	-1.16
GTTTACTCAGTCATACCACATGGATGGATT	0.755
AGGTGCTGCACCTTGAAACCCCTCCTTACA	3.44
AGAGAAGCACATCCAGGCAGCTTCAGAAAC	-1.32
AGGGGTGTGTTGACCGATAACCCTCCTGAA	1.61
GCAGTGACATGATCAAAGTTCATTGTAGCC	4.38
GATGTTTGGTCTTATTATCTTCAATGATAA	0.873
ATGTCTTCTTTTATCACTTTGTAATGTCCC	2.36
CCTTAGATCCACGGAGAATGTAGACCTTTA	2.68
GGCTCCAGAGTTTAATACCTCTGATCACTA	-1.24
CCCACTTCAGGCAGGAATGCTGAACAATTG	-0.848
TCTAAGAAATAGGTTAAAGAGTGGTCTTGG	0.813
GTGATTCAACTCTGACCCATAATAACGTCT	1.61
AGTTCTGAATGAGCAGACTGAGTTGCAGGA	-1.05
CAACATACAGAGGCTCTGAGAGTCTCAGTG	-1.33
TAAAGTGGATTGCTGGCCTTTTATCTTTTA	1.36
CTGTTTGTATAACCCTGGCTGGAGTTGCTG	-1.23
TGGAACACAGAGGGAAATGCAAACATTTCT	-1.24
GGGTATGAATTTAACCTTTGCTCTCTGAAA	6.63
AGGTACTAAGAGATTTGAATATGTACATGG	0.942
